Assay results: publication PMC7819943, “Rice protein-binding microarrays: a tool to detect cis-acting elements near promoter regions in rice”
Some of the results follow.

These sequences were tested against T1, OsWOX13 (Oryza sativa, UniProt Q5QMM3 1-267) (assay: protein-binding microarray (RPBM); PBS, 2% BSA, 51.3 ng/ul salmon testes DNA, 50 uM zinc acetate, 200 nM TF, 25 C, 1 h; high values mean tight binding). Details: protein: recombinant; tags: N-terminal polyhistidine and DsRed monomer fusion (pET32a); label: CyDye5-dUTP incorporated in the synthesized complementary strand; 3' TTTTT single-stranded linker to array surface; dsDNA, one strand shown.
T1 sequence: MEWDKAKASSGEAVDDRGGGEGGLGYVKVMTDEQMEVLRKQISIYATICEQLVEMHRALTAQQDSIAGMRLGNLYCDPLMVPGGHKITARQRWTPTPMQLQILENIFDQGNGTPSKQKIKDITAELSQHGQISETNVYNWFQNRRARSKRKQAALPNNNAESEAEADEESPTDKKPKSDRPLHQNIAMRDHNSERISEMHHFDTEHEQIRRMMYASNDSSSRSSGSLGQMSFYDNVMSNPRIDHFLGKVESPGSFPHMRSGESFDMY
In short: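 The binding signal is fluorescence intensity per array feature (arbitrary units). Readings came from an Axon 4000B scanner after a washed, 2% BSA-blocked, double-stranded custom Agilent array had been incubated for 1 h at 25 °C with 200 nM protein and 50 µM zinc acetate. The protein was a Ni–NTA-purified transcription factor fused N-terminally to polyhistidine and DsRed, expressed in E. coli BL21-CodonPlus.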

Sequence | binding signal
GGCACCGGCGGAGGGGCGCGGGAGGGGAGGCGGCGGCGAGCGGAGTCACCTAGTGCAG | 4050 fluorescence intensity (a.u.)
TGTGATTTCCTTGTGAGATTATAGAAGTGGCATTCAACACCGGAGTCACCTAGTGCAG | 6570 fluorescence intensity (a.u.)
CTCGTTGTGACAGATGGTAACCTGACGGCTACATTGCACGCGGAGTCACCTAGTGCAG | 3910 fluorescence intensity (a.u.)
CTTTTAGATTTGGCAAATAACTATTTGTCATCCCTATCTCCGGAGTCACCTAGTGCAG | 8990 fluorescence intensity (a.u.)
AATGATAAACATCTCAATTTTGTGTACTACAAACTGTGAGCGGAGTCACCTAGTGCAG | 7120 fluorescence intensity (a.u.)
TTGTGACTAATCATGAGTTTGATTATAGTATTGTCACACGCGGAGTCACCTAGTGCAG | 28600 fluorescence intensity (a.u.)
TAATACAGATTATAACAATCTAGCTTATAGTAATCTGACTCGGAGTCACCTAGTGCAG | 5140 fluorescence intensity (a.u.)
TGAAGTTAATTTTGGTGTTCTTGGATTTTCCATGCATCTCCGGAGTCACCTAGTGCAG | 3410 fluorescence intensity (a.u.)
CACTGACTGATTCCAATGAATTCGGCTTGGTTAGTTCATGCGGAGTCACCTAGTGCAG | 34800 fluorescence intensity (a.u.)
AGGAGTAGTAATTAATTAATTAAGCAGGTTGTAACCGCCCCGGAGTCACCTAGTGCAG | 26600 fluorescence intensity (a.u.)
CAAAATGAACCACAAACTGATTTGCTCCTCCCGAAGGTTCCGGAGTCACCTAGTGCAG | 14000 fluorescence intensity (a.u.)
TAAAATTATCAAAATATTATATTATACACATAAGATTGTACGGAGTCACCTAGTGCAG | 5140 fluorescence intensity (a.u.)
TACTTATCAATGTATGATAGATGTATCTCAAATGGACACGCGGAGTCACCTAGTGCAG | 3210 fluorescence intensity (a.u.)
ATTGTCGATTTGAATTGGATTGGATGGCAAAGGTTACGAGCGGAGTCACCTAGTGCAG | 10200 fluorescence intensity (a.u.)
CAGAGGCGTCGTCGTTGATTAGGGCGATTGGATTAGTCGCCGGAGTCACCTAGTGCAG | 6730 fluorescence intensity (a.u.)
AAATGCAAAGGTGATGGATTAATTAGGCTTAATAAATTCGCGGAGTCACCTAGTGCAG | 5180 fluorescence intensity (a.u.)
AGTATCAATTACTATCAGATTGAATTCTGTTTGTGTCGTGCGGAGTCACCTAGTGCAG | 38400 fluorescence intensity (a.u.)
ATGGTGTTGAGCTGTTGATTGATCAATAACTGAATTAGTTCGGAGTCACCTAGTGCAG | 33900 fluorescence intensity (a.u.)
ACTAAATTTACTGCTCAATTCTGAGCAATTTTGATCCTGTCGGAGTCACCTAGTGCAG | 23800 fluorescence intensity (a.u.)
CACCCTAATTAGCACCGGCGCTGCTAGTTATCTACTCTATCGGAGTCACCTAGTGCAG | 18900 fluorescence intensity (a.u.)
TAACAAAATAAATTACAGATTCCGCTAGGAAACTGCGAGACGGAGTCACCTAGTGCAG | 3900 fluorescence intensity (a.u.)

Sequence | binding signal
TAAAGATGTGACATTTAATTATTTGCTACCTATAATCTATCGGAGTCACCTAGTGCAG | 5190 fluorescence intensity (a.u.)
TAAGATTAAGCCATTAATTAGCCAAGCTAACTAAGCAAGCCGGAGTCACCTAGTGCAG | 17500 fluorescence intensity (a.u.)
CGGTGATTGATTTCAGATTTGAGTGGTTGATTACAACCTTCGGAGTCACCTAGTGCAG | 30200 fluorescence intensity (a.u.)
GTTTATAATTAGCATAGTAGTTTCTTGAGGCAGCCAGTGTCGGAGTCACCTAGTGCAG | 19000 fluorescence intensity (a.u.)
TCTCTTGACTGTGTAAAACAACTTCACGTGACAGCCTAGGCGGAGTCACCTAGTGCAG | 4080 fluorescence intensity (a.u.)
ACTAATTAACCACAAGTGCATGGGCTCTTAGTTGTCACCACGGAGTCACCTAGTGCAG | 20200 fluorescence intensity (a.u.)
TACACCTTAATTGCAAACTGGTTGATGCAAACCATAACAGCGGAGTCACCTAGTGCAG | 22700 fluorescence intensity (a.u.)
TCGGTTGATTTCTTGCAGAGATTAAGTAGCAGCAGGTGTTCGGAGTCACCTAGTGCAG | 6280 fluorescence intensity (a.u.)
AATTAATTTAGCCCCTAATTAATTAGCAGCCAATCAACGGCGGAGTCACCTAGTGCAG | 54000 fluorescence intensity (a.u.)
TATATATTAATGAATTTAGACATATATGTGTGTCTAGATTCGGAGTCACCTAGTGCAG | 5000 fluorescence intensity (a.u.)
ACTAGACAAAATTTCCTCTTAATGGGCTAATGGGCCTCCACGGAGTCACCTAGTGCAG | 6720 fluorescence intensity (a.u.)
CAGATTGGCAATCTCTCCTTCCTCTCCAGCCTTGTACTCACGGAGTCACCTAGTGCAG | 39300 fluorescence intensity (a.u.)
TCCAAATTACCAGAGAATTGGCGTAGACCATTTCTTCAAACGGAGTCACCTAGTGCAG | 8190 fluorescence intensity (a.u.)
GCCTTAATTGATTAACCGTGTAACATCTTCCTCACGCACCCGGAGTCACCTAGTGCAG | 65500 fluorescence intensity (a.u.)
GCTGATTCAGTAACTGTGACTCGCATGATGTAGTTCAGGACGGAGTCACCTAGTGCAG | 4240 fluorescence intensity (a.u.)
TTTAATGACTCGCAATAGACAACTCGAAGTCATATCGATACGGAGTCACCTAGTGCAG | 4830 fluorescence intensity (a.u.)
AACACAGGCTGATGAATGATGATTGAATGAACAGAGACAACGGAGTCACCTAGTGCAG | 22900 fluorescence intensity (a.u.)
GCCATTTGATTGGGAACTCCATCAAAACAATGACAAGAAGCGGAGTCACCTAGTGCAG | 25900 fluorescence intensity (a.u.)
TCATAATTAACTCTAACATTAAGATTTACAGAAAGTTAAACGGAGTCACCTAGTGCAG | 13900 fluorescence intensity (a.u.)
TTCAAAATTATAATGTAATTACATACAAATCACATGAAGGCGGAGTCACCTAGTGCAG | 26900 fluorescence intensity (a.u.)
TAGAATGGAAATTAATCAGAATATCTGCAGAAGGCAAGGGCGGAGTCACCTAGTGCAG | 9660 fluorescence intensity (a.u.)
